In all, about 310,000 compounds went through this assay and about 14,000 (4.5%) showed an effect of 50% or more. Effects have a minus sign here. The list shows a part of the results. Where a SMILES comes first, the peptide text is derived from it. [ ]: non-standard residue; d: D form. The star is where a group is joined. ξ: configuration not given here. Cbz = O=C(OCc1ccccc1)*; ξK = NCCCCC(N)C(=O)O
Target: human ether-à-go-go-related gene (hERG) potassium channel (human, UniProt Q12809)
Test: primary screen, population patch clamp on CHO cells stably expressing hERG
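Also: peak tail current of the secondary pulse compared with the same well before compound.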

Chain of human ether-à-go-go-related gene (hERG) potassium channel (Q12809 whole entry, looked up): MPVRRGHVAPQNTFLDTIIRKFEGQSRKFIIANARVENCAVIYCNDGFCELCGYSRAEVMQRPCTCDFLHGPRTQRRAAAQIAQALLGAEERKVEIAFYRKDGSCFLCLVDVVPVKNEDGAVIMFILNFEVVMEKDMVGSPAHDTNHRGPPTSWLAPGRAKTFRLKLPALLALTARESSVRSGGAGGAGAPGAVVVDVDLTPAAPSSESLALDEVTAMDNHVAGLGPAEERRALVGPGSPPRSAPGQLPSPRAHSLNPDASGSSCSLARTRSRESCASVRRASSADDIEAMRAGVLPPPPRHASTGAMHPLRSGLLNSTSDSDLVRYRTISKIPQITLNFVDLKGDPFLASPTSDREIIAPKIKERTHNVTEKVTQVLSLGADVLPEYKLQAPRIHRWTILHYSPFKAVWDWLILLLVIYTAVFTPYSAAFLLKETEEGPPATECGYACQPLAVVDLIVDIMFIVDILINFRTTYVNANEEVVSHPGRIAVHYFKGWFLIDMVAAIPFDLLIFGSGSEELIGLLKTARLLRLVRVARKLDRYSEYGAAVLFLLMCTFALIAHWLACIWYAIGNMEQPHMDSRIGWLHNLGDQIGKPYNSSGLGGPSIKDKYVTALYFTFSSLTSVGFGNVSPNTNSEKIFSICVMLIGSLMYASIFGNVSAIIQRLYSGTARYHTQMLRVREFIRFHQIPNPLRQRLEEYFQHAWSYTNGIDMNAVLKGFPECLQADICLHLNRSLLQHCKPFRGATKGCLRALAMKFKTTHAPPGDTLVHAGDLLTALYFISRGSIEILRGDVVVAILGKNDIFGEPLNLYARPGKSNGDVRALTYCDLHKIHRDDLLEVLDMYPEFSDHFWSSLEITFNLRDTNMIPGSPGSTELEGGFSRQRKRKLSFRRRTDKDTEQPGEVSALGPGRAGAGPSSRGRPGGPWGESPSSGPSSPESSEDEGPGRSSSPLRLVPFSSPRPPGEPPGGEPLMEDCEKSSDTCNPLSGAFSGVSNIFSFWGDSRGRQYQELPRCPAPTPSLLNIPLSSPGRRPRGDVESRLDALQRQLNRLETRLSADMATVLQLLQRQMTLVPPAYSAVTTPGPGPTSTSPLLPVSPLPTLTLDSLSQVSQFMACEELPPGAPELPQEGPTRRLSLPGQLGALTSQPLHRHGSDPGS

| Structure (SMILES) | hERG current change (%, negative = inhibition) at 10uM |
| --- | --- |
| COc1cccc(-c2nc(CS(=O)CC(=O)NCCCOC(C)C)c(C)o2)c1 (stereo not drawn) | -0.119% |
| Cc1cc(C)n(CC(=O)N/N=C/c2ccc([N+](=O)[O-])s2)n1 | 15.6% |
| Cc1ccc(-c2nn(C)c(=O)c3ccccc23)cc1CNC(=O)/C=C/c1ccccc1 | -13.9% |
| CNC(=S)NCCc1cc2c(OC)ccc(OC)c2[nH]c1=O | 12.1% |
| CC(C)Oc1cccc(C(=O)C2CCCN(Cc3ccon3)C2)c1 (stereo not drawn) | -3.37% |
| Cc1cc(C)cc(OCCCOc2cccc3cccnc23)c1 | -8.87% |
| CCOc1cc(N2CCOCC2)c(OCC)cc1NC(=O)C(C)C | -0.139% |
| CC(C)(C)NC(=O)CN1CCCN(C(=O)COc2ccc(Cl)c3ccccc23)CC1 | -38.9% |
| CC1=C(C)CC(C(=O)N2CCN(Cc3ccccc3)CC2)C(C(=O)O)C1 (stereo not drawn) | 5.81% |
| CC(C)OC(=O)CSc1nc2ncccc2[nH]1 | 7.64% |
| COc1ccc(Cl)cc1C(=O)N1CCN=C1SC | 21.3% |
| O=c1c(-c2ccc(O)cc2)coc2cc(OC3OC(CO)C(O)C(O)C3O)ccc12 (stereo not drawn) | 30.8% |
| COc1ccc(CN(C)C(=O)Cn2ccsc2=N)cc1OC.Cl | 13.7% |
| S=c1[nH]nc(COc2ccccc2)n1/N=C/c1ccco1 | 12.8% |
| CS(=O)(=O)N(CC(=O)NCc1ccncc1)c1cc(Cl)ccc1Cl | 13.4% |
| CC(c1nnc(SCC(=O)c2c(N)n(C)c(=O)n(C)c2=O)n1-c1ccc(Cl)cc1)N(C)C (stereo not drawn) | 5.35% |
| O=C(O)C1CC=CCC1C(=O)NCCc1cccc(Cl)c1 (stereo not drawn) | 4.9% |
| CCOc1nc(NCc2ccco2)nc(Nc2ccccc2F)n1 | 5.54% |
| CCc1ncc(CN2CCCCC2C(=O)Nc2ccc(Oc3ccccc3)nc2)cn1 (stereo not drawn) | -14.5% |

| Structure (SMILES) | hERG current change (%, negative = inhibition) at 10uM |
| --- | --- |
| COc1ccc2cc(C(C)C(=O)Nc3cccc(S(=O)(=O)N(C)C)c3)ccc2c1 (stereo not drawn) | -6.54% |
| COC(=O)c1sc(S(=O)(=O)N2CCCCC2C(=O)O)c(C(=O)OC)c1C (stereo not drawn) | 9.14% |
| NCCCC[C@@H](C(=O)NCCCCCCCCCCC(=O)N1CCNCC1)n1cc(CCO)nn1 | 13.8% |
| C=CCNc1nc(Nc2ccc([N+](=O)[O-])cc2)nc(N2CCCC2)n1 | -23.8% |
| Cn1c(=O)c2c(ncn2CC(=O)OCC(=O)NCc2ccccc2Cl)n(C)c1=O | 13.1% |
| Cc1ccc(NC(=O)NNC(=O)CN2C(=O)COc3ccccc32)cc1 | 2.83% |
| CC(C)Cn1c(CNC(=O)c2ccccc2)nc2ccccc21 | -8.16% |
| CCOC(=O)c1c2c([nH]c(=S)c1C#N)CCCC2 | 22.1% |
| COc1ccc(NC(=O)O/N=C/c2ccc(Br)cc2)cc1 | 26.9% |
| O=C(Cn1nnc(-c2cccc(C(F)(F)F)c2)n1)NC(=O)NCc1ccco1 | 10.2% |
| O=C(CCc1nc2ccccc2c(=O)[nH]1)N1CCN(S(=O)(=O)c2ccc(Cl)c(C(F)(F)F)c2)CC1 | -20% |
| COC(=O)C(CCCCNC(=O)OCc1ccccc1)NC(=O)CN.Cl (stereo not drawn) (H-Gly-[ξK](Cbz)-OMe) | 8.85% |
| Cn1c(SCC(=O)c2ccccc2)nnc1-c1cccc(N)c1 | 8.57% |
| CSc1ccc(/C=N/NC(=O)c2cccc(O)c2)cc1 | 8% |
| COC(=O)C1CSC2c3ccccc3C(=O)N12 (stereo not drawn) | 9.53% |
| CC(C)c1ccccc1NC(=O)c1cccnc1 | 2.91% |
| CC1CC(C)CN(CCCNC(=O)C2CCN(c3nnc(-n4cccc4)s3)CC2)C1 (stereo not drawn) | -28.3% |
| COc1ccccc1C(=O)NCCn1cc(SCC(=O)Nc2cc(C)on2)c2ccccc21 | -15.6% |
| CCc1nnc(NC(=O)CN2C(=O)NC3(CCCC3)C2=O)s1 | -0.499% |

| Structure (SMILES) | hERG current change (%, negative = inhibition) at 10uM |
| --- | --- |
| CCOC(=O)Cc1csc(NC(=O)C(CC(C)C)NC(=O)C2CCCCC2)n1 (stereo not drawn) | 7.55% |
| Cc1cc(=O)oc2cc(NC(=O)c3cccc(S(=O)(=O)N(C)C)c3)ccc12 | 16.4% |
| OC[C@@H](O)[C@@H](O)[C@H](O)[C@@H](O)CO | 10.3% |
| C=CCNC(=S)Nc1ccc(OC)c(S(=O)(=O)N2CCOCC2)c1 | -10.3% |
| CCOC(=O)Cn1c(=O)sc2ccccc21 | 1.17% |
| COc1ccccc1-n1c(SCC(=O)N2CCc3ccccc32)nc2c(c1=O)SCC2 | 7.1% |
| COc1ccc(NC(=O)Cn2c(CCC(=O)O)ccc2-c2ccc(C)cc2)cc1 | 1.48% |
| Cc1cccc(Nc2nc(N3CCCC3)nc(N3CCCC3)n2)c1 | 1.44% |
| CCn1c(NCc2ccccn2)nc2ccccc21 | -4.06% |
| CSc1ccc(CN(C)C(=O)c2cccc(S(=O)(=O)N3CCN(Cc4ccccc4)CC3)c2)cc1 | -1.76% |
| COC(=O)C1=C(C)NC(=O)NC1c1cccc(OC)c1OCc1ccccc1 (stereo not drawn) | -11.9% |
| Cc1cccc(-c2oc3ccccc3c2C#CCCO)c1 | 16.7% |
| COC(=O)c1c(NC(=O)c2ccco2)sc2c1CCN(C(C)=O)C2 | -2.22% |
| CCc1ccc(-c2nc(C(N)=O)c3[nH]c(=O)n(-c4ccccc4OC)c3n2)cc1 | -0.102% |
| COc1cccc(CNC(=O)CCn2ccc3cc(S(=O)(=O)N4CCC(C)CC4)ccc32)c1 | -3.69% |
| COc1ccc(C(=O)Nc2cccc3c2CCCC3)c(OC)c1 | 5.99% |
| COc1cc(C(=O)NCc2nnc(SCC(=O)Nc3cccc(C(F)(F)F)c3)o2)cc(OC)c1OC | -19.7% |
| O=C(CNC(=O)c1ccccc1)Oc1cccc(Cl)c1 | 17.8% |
| CCN1CCN(C(=O)c2ccc3c(=O)n(Cc4ccccc4OC)c(=S)[nH]c3c2)CC1 | -8.43% |
